Experimental data from patent US20110077263A1, “Methods and Compositions of Toll-Like Receptor (TLR) Agonists” (priority 2009, published 2011).

Tested on: LC exposed to HPV16 L1L2 VLP
Assay: In vitro transwell chemotaxis assay to CCL21 (Poly-ICR)
Type: cell-based, human
Conditions: 5 μg/mL Poly-ICR or 20 μg/mL CD40L, 48 h; 250 ng/mL CCL21, 4 h; versus untreated LC or LC exposed to HPV16 alone

B1: CD40L: a protein involved in licensing antigen presenting cells to activate CD8+ T cells (protein, UniProt P29965 113-261, looked up)
CD40 ligand, soluble form: MQKGDQNPQIAAHVISEASSKTTSVLQWAEKGYYTMSNNLVTLENGKQLTVKRQGLYYIYAQVTFCSNREASSQAPFIASLCLKSPGRFERILLRAANTHSSAKPCGQQSIHLGGVFELQPGASVFVNVTDPSQVSHGTGFTSFGLLKL
Which “migration capacity to CCL21” value does the source give for B1 here?
Its value is “enhanced migration to CCL21”.
